# In the supplement of paper PMC11417369:
# This is one part of the list.
# System: PfAP2-HC AP2 domain (GST-tagged)
# Assay: gcPBM binding intensity (ln(normalized median fluorescence intensity)); higher = stronger DNA binding
# In short: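 In this array assay, P. falciparum DNA-binding domains with a GST tag, expressed in E. coli, were applied for 1 h to primer-extended double-stranded 36-bp intergenic genomic probes and negative controls on an Agilent 4 × 180k array. Bound protein was visualised with Alexa488 anti-GST antibody at 488 nm. Binding intensity is the highest Masliner-normalised natural-log median intensity across replicate spots of either probe orientation.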
row,Sequence,gcPBM binding intensity (ln)
1,TTTTTTTTTTTTTTTTGTACTCATACATACTATCAT [XGTACX_site3650],9.29
2,CAGGCACTAATAAACACACACATATAAATATAAATA [CACACA_site6320],10.1
3,ACATCAAGCAGACACACACACACACCCACCCACCCA [CACACA_site8012],11.5
4,AATTTCTACTATTGTATGCACTTTCATACATACATA [GTGCAC_site9924],9.92
5,AACACAAGAACAGAACGTACACACACATATATATAT [XGTACX_site7347],10.4
6,AGGTGTGAGACCACGTTCACAAAATAAAATACATAA [CACACA_negctrl_site326],9.73
7,AACAACTATTAATTTACACACATGTATATATTTTAC [CACACA_site3116],10
8,AATAGCTAGCTGTGCACACAAACATATTTTCCAAAT [CACACA_site880],9.91
9,ATATATATATAATTTTGTACATAATAGCAATTCTAA [XGTACX_site653],9.53
10,GGATGGAGTAGTTAAGCATAATAAATAAAATTATGT [CACACA_negctrl_site578],9.58
11,GTTTTAAACAAAAATTGTACAATATAATCTTCCTAT [XGTACX_site2851],9.55
12,CAAAACCTTTTATGTACACACATATACATCCCACTT [CACACA_site5716],10.3
13,ACCTCACAAATGAATACACACAAACATATATATTTA [CACACA_site4976],10
14,TATTTTATTATACCAAGTACAAAATTTAAATATGAA [XGTACX_site5478],9.49
15,TATAAGAGAATATATACACACAAAAATAAATACAGT [CACACA_site5000],10.9
16,ATTTTATGTTGAAAGTGTACGTATTAATATGTAGAA [XGTACX_site245],9.82
17,CCACAAGCAGCGGAAACATGCATATGTTGAAATAAT [TGCATGCA_site610],9.39
18,TCATTTCACAAACACACACACACAATATATTTCCTT [CACACA_site3905],10.3
19,AACAAAAAAAAAAAATGTACATATATATAATATATT [XGTACX_site3829],9.71

row,Sequence,gcPBM binding intensity (ln)
1,GTTAAGAATATGTGTACACATATACATAAATACATA [CACACA_site4254],9.85
2,TAATAATATTATTAATGTACAAATATATATACATAT [XGTACX_site7348],9.58
3,TATATATATATATATTGTACCCTTTTCAAACTTCTC [XGTACX_site2812],9.39
4,TTTTTCTTTTTCTTTTTTTCTTTTTTTTTTTTTTTC [GTGCAC_negctrl_site727],9.21
5,CAGACGCACGTATTTGCACACATTGCCACGTAATTA [CACACA_site3349],10.2
6,AACCATTCAACTGATGCATGCATTTAACATATAAAT [TGCATGCA_site961],9.59
7,GGATTGATAAGTGGTACACACATATATATTATATAT [CACACA_site2866],9.96
8,GCATTGGGAATATATAGTACATATATATATATATAA [XGTACX_site2967],9.56
9,AAATATAAAAATAGCACACATATATACCTATATATA [CACACA_site4204],9.85
10,AAAAAAATTGGGAAAAGTACTTGCAGCTAGCTAAAA [XGTACX_site5178],9.69
11,TTAAAAAAAATTTCAAGTACAAAGTAATATATATAT [XGTACX_site5718],9.61
12,AAACAAATATAATATTGTACATATATATATATATAT [XGTACX_site3105],9.72
13,TATTTGCAATATAACACACACAAAAAAAGACTCGGA [CACACA_site6891],10.2
14,CATATATATATATATTGTACACATTTTTTATAAAAA [XGTACX_site2526],9.49
15,AATTATACATTATATTGTACATATGAATAATTAAAA [XGTACX_site6829],9.58
16,TATATGTAATATATATGTACGTATAATATAATATTG [XGTACX_site8620],9.69
17,ATACAAATAAAAAAAAAAATTATAAAATTATAAAAT [CACACA_negctrl_site914],9.53
18,AGTGATAATTTAAAAAGTACAAATGAAATTTAGCTA [XGTACX_site3375],9.67
19,TATATATAAAGCAGTACACACATTTATTTTAGATAC [CACACA_site3387],9.96

row,Sequence,gcPBM binding intensity (ln)
1,AGAGAGAAAGCTATAACATGCAAAAATTTTTAGAAC [TGCATGCA_site420],9.94
2,TTTGTAACTTCTTTCACACATATATATATATATATA [CACACA_site5603],9.73
3,GTGTGCAAAAATTGTTGTACATTATATATAAAAAAA [XGTACX_site3246],9.97
4,TTTCACATATATATGGTGCATATTTTATGTGTAAAT [GTGCAC_site9937],9.7
5,CTATTATCGGTTCCTACACACAAATATAGATGTCTA [CACACA_site7651],9.88
6,TATATAATACAAAAGGGTACATTAACATATTATATA [XGTACX_site3196],9.69
7,TGGAATAAAAAAAGGAGTACAATTAATTATTCTTAA [XGTACX_site8299],9.5
8,TATATATATATATATGTGCACATATTTATATGTTTT,9.64
9,GAAATTAAATGACATACACACTATATTATATATTTT [CACACA_site5693],9.83
10,TAGATAGATTAAAATACATGCATATTATTAAAAAAT [TGCATGCA_site739],9.59
11,CACCCATACACATACAAACACACATTCTATATATAT [CACACA_site1600],10.1
12,CATACATACATACATACACACATACATATGTATATA [CACACA_site7216],10.1
13,AGCATAAAAATGATATGTACATATATATATATATAT [XGTACX_site2836],9.79
14,ATTTAATGTATTTTGCGTACGAATTATTTTATTTCA [XGTACX_site7331],9.9
15,TATCTTCAATGTGAAAGTACTTAAATTGTTATAAAA [XGTACX_site2586],9.15
16,AATCATAAACATTATGCACACAAAAATAAAAAAAAA [CACACA_site8289],9.9
17,TATCAAAAAAAAAGTAGTACGATAATAGTTTCCCAA [XGTACX_site1812],9.56
18,ACTTATAATATTTAGTGTACATATTGTGACTAATAC [XGTACX_site1508],9.78
19,AAAAAAAAAACAAATGCATGTAATATAAGAATTACA [TGCATGCA_site908],9.7
